# Data: PubChem BioAssay AID624296 (National Center for Advancing Translational Sciences (NCATS), 2012)
# The campaign covered roughly 350,000 compounds. About 9,900 (2.8%) were called active. The shares of active, inactive and inconclusive entries below differ from those in the screen. The call rests on the fitted dose curve; in most records, active means well fitted activation curve with a large enough effect; inconclusive means small, poorly fitted or top-dose-only effect; inactive means no such curve, though single readings can be large or run the other way. No potency is given beside an inconclusive call; the fits are too rough.
# Assay: A quantitative high throughput screen for small molecules that induce DNA re-replication in MCF 10a normal breast cells. Further: nearly all actives have a fitted effect of over 50% in size.
# Settings: MCF 10A DNA re-replication, Hoechst nuclear intensity, 48 h; series mostly up to 46.1 µM
# Potency means the concentration at half of the fitted maximal effect; tags describe the fitted curve by direction and shape.
row,SMILES,Potency
1,CN(C)/C=N/c1ncc(C(=O)OC(C)(C)C)s1,inactive
2,CC(=O)c1cccc(NS(=O)(=O)c2ccc(NC(=O)N3CCCCC3)cc2)c1,"inconclusive [activator, single point]"
3,O=C(CSc1nc2ccc(NC(=O)c3ccccc3C(=O)O)cc2s1)Nc1c(Cl)cccc1Cl,inactive
4,COc1ccc(/C=N/NC(=O)c2cc(-c3ccccc3)nc3ccccc23)c(OC)c1,"inconclusive [activator, partial curve]"
5,COC(=O)[C@@]12CCCN1[C@H](c1ccc(-c3cccc(Cl)c3)cc1)[C@H]1C(=O)N(C)C(=O)[C@H]12,"inconclusive [activator, partial curve, poor fit]"
6,C=CCN(Cc1cc(OC)ccc1OC)C(=O)c1cc2ccc(OC)cc2[nH]1,"inconclusive [activator, partial curve, poor fit]"
7,COc1ccccc1-c1nc(C#N)c(N2CCN(c3cccc(Cl)c3)CC2)o1,"inconclusive [activator, single point]"
8,S=c1nc(C2CC2)[nH]c2ccccc12,"inconclusive [activator, partial curve, poor fit]"
9,Cc1c(C)c2c(c(C)c1O)CC[C@@](C)(CCC[C@@H](C)CCC[C@@H](C)CCCC(C)C)O2,inactive
10,O=c1[nH]c2ccccc2nc1/C=C/c1ccc(O)cc1,active: 8.2 µM
11,Cc1ccc(NC(CNS(=O)(=O)c2ccc(Cl)cc2)c2ccccc2)cc1 (stereo not drawn),"inconclusive [activator, single point]"
12,O=C(/C=C\Nc1ccccc1Br)c1ccc2c(c1)OCO2,inactive
13,COC(=O)c1ccc(OCC2NCCc3cc(OC)c(OC)cc32)cc1 (stereo not drawn),inactive
14,Cn1nnc2cc(C(=O)N3CCSCC3)ccc21,"inconclusive [activator, single point]"
15,COC(=O)Cc1nc2ccccc2[nH]1,"inconclusive [activator, partial curve, poor fit]"
16,CCSc1nc2[nH]ncc2c(=O)[nH]1,inactive
17,Cn1c(N)c(C(=O)COC(=O)Cc2ccc(Cl)cc2)c(=O)n(C)c1=O,inactive
18,CCn1ncc(Br)c1C(=O)Nc1ncc(C)s1,"inconclusive [activator, partial curve, poor fit]"
19,COc1ccc2cc(C(C)C(=O)N3CCC(C)CC3)ccc2c1 (stereo not drawn),"inconclusive [activator, full curve, poor fit]"
20,COc1ccc(N2CCN(c3cc(C)c4ccc(C)cc4n3)CC2)cc1,active: 20.6 µM
21,CCCCCCCC/C=C\CCCCCCCC(=O)NCc1ccc(O)c(OC)c1,active: 23.7 µM
22,COc1ccc(O)c(C(=O)/C=C/c2cc3ccccc3o2)c1,active: 2.59 µM
23,O=C(CN1CCc2ccccc2C1)NCc1ccco1,"inconclusive [activator, partial curve, poor fit]"
24,COC(=O)c1cc(=O)n2c(sc3ccccc32)c1C#N,active: 20.6 µM
25,CCCCC[C@H](O)/C=C/[C@@H]1[C@@H](C/C=C\CCCC(=O)O)[C@H]2CO[C@@H]1C2,"inconclusive [activator, full curve, poor fit]"

row,SMILES,Potency
1,O=C(COC(=O)c1oc2ccccc2c1CSc1ccc(Cl)cc1)NC1CCCC1,"inconclusive [activator, single point]"
2,CC(C)(C)NC(=O)CN(Cc1ccccc1)S(=O)(=O)c1ccccc1,"inconclusive [activator, full curve, poor fit]"
3,COc1ccc2nc(NC(=O)C3CC(=O)N(c4ccc5c(c4)OCCO5)C3)sc2c1 (stereo not drawn),inactive
4,O=C(COC(=O)c1cccc([N+](=O)[O-])c1)NCc1ccc2c(c1)OCO2,inactive
5,NC(=O)c1cc2ccncc2c2ccccc12,"inconclusive [activator, single point]"
6,O=C(Nc1ccc2c(c1)OCCO2)C1CCN(S(=O)(=O)c2ccccc2)CC1,"inconclusive [activator, single point]"
7,O=C(c1cc2nc(-c3ccco3)cc(C(F)(F)F)n2n1)N1CCN(c2ccccn2)CC1,"inconclusive [activator, single point]"
8,CC(C)NS(=O)(=O)c1ccc(CCC(=O)NCc2ccc3c(c2)OCO3)cc1,"inconclusive [activator, full curve, poor fit]"
9,COc1cc(C2C(C#N)=C(N)Oc3cc(N(C)C)ccc32)cc2c1OCO2 (stereo not drawn),"inconclusive [activator, single point]"
10,COC(=O)N1CCN(c2ccc(OC)cc2)CC1,inactive
11,O=C(CN1CCN(S(=O)(=O)c2ccc(Br)s2)CC1)N1CCCCC1,inactive
12,COc1ccccc1NC(=O)N1CCN(c2ccc3nncn3n2)CC1,"inconclusive [activator, single point]"
13,COc1ccccc1OCC(O)CN1CCN(C(=O)c2ccccc2)CC1 (stereo not drawn),inactive
14,Cc1ccn2c(-c3n[nH]c(=S)n3Cc3ccccc3)c(C)nc2c1,"inconclusive [activator, partial curve, poor fit]"
15,CSc1ccc(NC(=O)N2CC=C(n3c(=O)[nH]c4ccccc43)CC2)cc1,"inconclusive [activator, single point]"
16,CCC(CC)CN1CCC(CN2CCNC(=O)C2=O)CC1,active: 2.06 µM
17,Oc1ccc2ccccc2c1/C=N/Nc1nnc(-c2ncc[nH]2)c2ccccc12,"inconclusive [activator, partial curve]"
18,O=C(CSc1ccc(-c2ccncc2)nn1)c1ccccc1,inactive
19,O=C(NCCNC(=O)c1ccc(Cl)cc1Cl)c1ccco1,inactive
20,O=C(CSc1nc2ccccc2c(=O)[nH]1)Nc1ccc(S(=O)(=O)N2CCCC2)cc1,inactive
21,Nc1nc(-c2ccccc2)c(-c2ccc([N+](=O)[O-])cc2)s1,inactive
22,COc1ccc(S(=O)(=O)N2CCOC23CCN(S(=O)(=O)c2c(C)cc(C)cc2C)CC3)cc1,"inconclusive [activator, partial curve, poor fit]"
23,CC(=C/c1ccccc1)/C=N/NC(=O)c1cnccn1,inactive
24,O=C1C2CC=CCC2C(=O)N1c1ccc(NCCc2ccc(Cl)cc2)c([N+](=O)[O-])c1 (stereo not drawn),"inconclusive [activator, partial curve, poor fit]"
25,CCOc1ccccc1NC(=O)N1CCC(NC(=O)C2CCCCC2)CC1,inactive

row,SMILES,Potency
1,CCn1cc([N+](=O)[O-])c(C(=O)Nc2nc(-c3ccc(C)cc3)c(C)s2)n1,"inconclusive [activator, single point]"
2,COc1ccccc1CNC(=O)C1CCC(CNC(=O)[C@@H]2Cc3ccccc3CN2)CC1 (stereo partly drawn),"inconclusive [activator, partial curve]"
3,O=c1c2nnn(-c3ccccc3)c2ncn1C/C=C/c1ccccc1,inactive
4,COc1ccc(C(=O)NCC(c2ccc(F)cc2)N2CCOCC2)cc1S(=O)(=O)N1CCCC1 (stereo not drawn),inactive
5,Cc1ccc(N(CC(=O)NC2CCCCC2)C(=O)CCC(=O)Nc2nccs2)cc1,inactive
6,Cc1c(-c2ccccn2)c(=O)[nH]n1-c1ccc(F)cc1,inactive
7,CN1CCN(NC(=S)NC2CCCCC2)CC1,inactive
8,COC(=O)c1ccc(C(=O)OC)c(NC(=O)CN(C)Cc2cccc(Cl)c2Cl)c1,"inconclusive [activator, partial curve, poor fit]"
9,N=c1ccn2c(n1)O[C@H]1[C@H](O)[C@@H](CO)O[C@H]12,"inconclusive [activator, full curve]"
10,COc1ccc(-c2nc3c4ccccc4ccn3c2CN2CCCCC2)cc1,"inconclusive [activator, partial curve]"
11,CCOC(=O)c1ccccc1NS(=O)(=O)c1ccc(C)cc1,"inconclusive [activator, single point]"
12,Cc1csc(SC(C)c2nc3scc(-c4ccccc4)c3c(=O)[nH]2)n1 (stereo not drawn),"inconclusive [activator, partial curve, poor fit]"
13,CCOC(=O)c1ccc(S(=O)(=O)N2CCN(CC(O)COc3cccc(C(C)=O)c3)CC2)cc1 (stereo not drawn),"inconclusive [activator, partial curve, poor fit]"
14,CC(=O)Oc1cc(C(F)(F)F)ccc1C(=O)O,inactive
15,N#CCCn1cc(/C=C2\NC(=S)N(c3ccccc3)C2=O)c(-c2ccc(F)cc2)n1,"inconclusive [activator, partial curve, poor fit]"
16,CCOc1ccc(-c2nnn(CC(=O)NCc3ccco3)n2)cc1OCC,inactive
17,CN(C)CCCN(C(=O)c1ccco1)c1nc2cc3c(cc2s1)OCO3,"inconclusive [activator, single point]"
18,O=C(COc1ccccc1)NCc1ccc2c(c1)OCO2,"inconclusive [activator, single point]"
19,O=C(COC(=O)c1cccc(Cl)c1)Nc1cccc(S(=O)(=O)NC2=NCCC2)c1,inactive
20,Cc1cc(NC(=O)C2CC2)ncc1NC(=O)C12CC3CC(CC(C3)C1)C2,"inconclusive [activator, partial curve, poor fit]"
21,CCN(CC)C(=O)CSc1nc2cc3c(cc2c(=O)n1CCCCCC(=O)NCc1ccc(OC)cc1)OCO3,active: 18.4 µM
22,COc1ccc(Cc2ccccc2C(=O)O)cc1,inactive
23,Cc1nc(N2CCOCC2)nc(N2CCN(c3ccccc3)CC2)c1[N+](=O)[O-],"inconclusive [activator, partial curve, poor fit]"
